This is an account of results in PubChem BioAssay AID342 (DTP/NCI, 2004).

Certain results were filed several times, with different values. Only these are listed. There may be further records. The records of an entry repeat one measurement in other runs, samples, wells, individuals or studies.

The test system of this experiment is Swiss mice, Sarcoma 180 sc, mean tumor weight T/C. The experiment in a line: NCI In Vivo Anticancer Drug Screen. Data for tumor model Sarcoma 180 (subcutaneous) in Swiss mice. As to conditions: endpoint: mean tumor weight, higher = larger tumour. The method, then: The antitumor activity of compounds was measured in mice bearing transplantable tumors. Survival or tumor size were measured and the results are expressed as the measurement made in the treated group (T) divided by the measurement made in the vehicle treated control group (C). The tumor model used in this assay is Sarcoma 180 (subcutaneous) in Swiss mice

The mark [1] stands for this setting: dose: 83.3 mg/kg/injection, schedule: Q#A X014 (sc), vehicle: steriod suspending solution.

As to `C#C[C@]1(O)CC[C@H]2[C@@H]3CCc4cc(O)ccc4[C@H]3CC[C@@]21C`, the T/C under setting [1] was 48 % of control, 62 % of control, 75 % of control.
As to `O=C(O)C(O)C(F)(F)F` (stereo not drawn), the T/C (dose: 31.25 mg/kg/injection, schedule: Q#A X014 (ip), vehicle: saline) is 80 % of control and 108 % of control.
Consider `CC(=O)OCC(=O)[C@@]1(O)[C@H](C)C[C@H]2[C@@H]3C=C(C)C4=Cc5c(cnn5-c5ccc(F)cc5)C[C@]4(C)[C@H]3[C@@H](O)C[C@@]21C`, for which the T/C was 59 % of control and 85 % of control (dose: 1.0 mg/kg/injection, schedule: Q01DX007 (sc), vehicle: steriod suspending solution); 35 % of control, 38 % of control, 93 % of control (dose: 1.5 mg/kg/injection, schedule: Q01DX007 (sc), vehicle: steriod suspending solution).
For the molecule `CC1(c2ccccc2)O[C@@H]2C[C@H]3[C@@H]4CCC5=CC(=O)C=C[C@]5(C)[C@@]4(F)[C@@H](O)C[C@]3(C)[C@]2(C(=O)CO)O1` (stereo partly drawn), the T/C is 23 % of control, 46 % of control, 56 % of control (dose: 3.9 mg/kg/injection, schedule: Q#A X014 (sc), vehicle: steriod suspending solution); 18 % of control and 55 % of control (dose: 5.85 mg/kg/injection, schedule: Q#A X014 (sc), vehicle: steriod suspending solution); 10 % of control, 17 % of control, 38 % of control (dose: 13.2 mg/kg/injection, schedule: Q#A X014 (sc), vehicle: steriod suspending solution).
In the case of `c1ccc2cc3c(cc2c1)Cn1c-3nc2ccccc21`, the T/C is 48 % of control and 81 % of control (dose: 100.0 mg/kg/injection, schedule: Q01DX007 (ip), vehicle: carboxymethylcellulose (CMC)); 32 % of control and 63 % of control (dose: 220.0 mg/kg/injection, schedule: Q01DX007 (ip), vehicle: carboxymethylcellulose (CMC)); 19 % of control and 69 % of control (dose: 330.0 mg/kg/injection, schedule: Q01DX007 (ip), vehicle: carboxymethylcellulose (CMC)); 20 % of control and 46 % of control (dose: 750.0 mg/kg/injection, schedule: Q01DX007 (ip), vehicle: carboxymethylcellulose (CMC)).
For `CC1(C)O[C@@H]2C[C@H]3[C@@H]4CCC5=CC(=O)CC[C@]5(C)[C@@]4(F)[C@@H](O)C[C@]3(C)[C@]2(C(=O)CO)O1`, the T/C (dose: 8.0 mg/kg/injection, schedule: Q01DX007 (sc), vehicle: steriod suspending solution) is 37 % of control and 67 % of control.
Consider `CCCC(=O)OCC1OC(n2cnc3c(=S)nc(N)[nH]c32)C(OC(=O)CCC)C1OC(=O)CCC` (stereo not drawn), for which the T/C is on record as 28 % of control, 34 % of control, 54 % of control (dose: 21.0 mg/kg/injection, schedule: Q01DX007 (ip), vehicle: carboxymethylcellulose (CMC)) and 18 % of control, 30 % of control, 73 % of control (dose: 31.0 mg/kg/injection, schedule: Q01DX007 (ip), vehicle: carboxymethylcellulose (CMC)).
`CCCCCCCCCCCCCCCCCCNC(=S)N/N=C/c1ccc(Cl)cc1Cl`: the T/C (dose: 97.5 mg/kg/injection, schedule: Q#A X014 (ip), vehicle: methylcellulose (MC)) is 35 % of control and 91 % of control.
Take `CC(=O)NNC(=O)c1ccccn1`: the T/C (dose: 150.0 mg/kg/injection, schedule: Q01DX007 (ip), vehicle: water) was 29 % of control and 74 % of control.
Turning to `CC(C)CCCCCCCCCCCCC(=O)NCC(=O)NC1C(O)C(O)C(Nc2ncnc3nc[nH]c23)OC1C(O)CO` (stereo not drawn), the T/C (dose: 0.4 mg/kg/injection, schedule: Q01DX007 (ip), vehicle: carboxymethylcellulose (CMC)) is 56 % of control and 107 % of control.
Regarding `Clc1ccc2c(c1)Cc1cc(N=Cc3ccccc3Cl)ccc1-2`, the T/C (dose: 96.0 mg/kg/injection, schedule: Q01DX007 (ip), vehicle: other) is 51 % of control and 95 % of control; the T/C (dose: 144.0 mg/kg/injection, schedule: Q01DX007 (ip), vehicle: other) is 42 % of control and 99 % of control.
On to `Nc1nc(=S)c2ncn(C3OC(CO)C(O)C3O)c2[nH]1` (stereo not drawn), for which the T/C by setting is: (dose: 1.0 mg/kg/injection, schedule: Q01DX007 (ip), vehicle: carboxymethylcellulose (CMC)) 39 % of control and 94 % of control; (dose: 2.0 mg/kg/injection, schedule: Q01DX007 (ip), vehicle: carboxymethylcellulose (CMC)) 27 % of control, 77 % of control, 102 % of control; (dose: 4.0 mg/kg/injection, schedule: Q01DX007 (ip), vehicle: carboxymethylcellulose (CMC)) 28 % of control, 62 % of control, 91 % of control; (dose: 4.0 mg/kg/injection, schedule: Q#A X014 (ip), vehicle: carboxymethylcellulose (CMC)) 22 % of control and 77 % of control; (dose: 8.0 mg/kg/injection, schedule: Q01DX007 (ip), vehicle: carboxymethylcellulose (CMC)) 12 % of control, 19 % of control, 108 % of control.
On to `CC(=O)[C@H]1[C@H](C)C[C@H]2[C@@H]3CCC4=CC(=O)CC[C@]4(C)[C@@]3(F)[C@@H](O)C[C@@]21C`, for which the T/C is given as 20 % of control, 39 % of control, 93 % of control under setting [1] and 27 % of control, 30 % of control, 71 % of control (dose: 125.0 mg/kg/injection, schedule: Q#A X014 (sc), vehicle: steriod suspending solution).
As for `CCc1nc(N)nc(N)c1-c1ccc(Cl)c(Cl)c1.O.O.[Zn]`, the T/C (dose: 5.3 mg/kg/injection, schedule: Q01DX007 (ip), vehicle: carboxymethylcellulose (CMC)) is 20 % of control and 49 % of control.
Regarding `CS(=O)(=O)OCCCCCOS(C)(=O)=O`, the T/C (dose: 25.0 mg/kg/injection, schedule: Q#A X014 (ip), vehicle: methylcellulose (MC)) is 38 % of control and 83 % of control.
Turning to `CCCCC(=O)OCC1OC(n2cnc3c(=S)nc[nH]c32)C(OC(=O)CCCC)C1OC(=O)CCCC` (stereo not drawn), for the setting “dose: 500.0 mg/kg/injection, schedule: Q01DX007 (ip), vehicle: carboxymethylcellulose (CMC)”, the T/C is 33 % of control and 74 % of control.
Take `C[C@]12CC[C@H](OC3OC(CO)C(O)C(O)C3O)C[C@H]1CC[C@@H]1[C@@H]2CC[C@]2(C)[C@@H](C3=CCOC3=O)CC[C@]12O` (stereo partly drawn): the T/C reads like this: (dose: 0.25 mg/kg/injection, schedule: Q01DX007 (ip), vehicle: carboxymethylcellulose (CMC)) 40 % of control and 86 % of control; (dose: 0.4 mg/kg/injection, schedule: Q01DX007 (ip), vehicle: saline) 45 % of control and 77 % of control; (dose: 0.5 mg/kg/injection, schedule: Q01DX007 (ip), vehicle: carboxymethylcellulose (CMC)) 36 % of control and 68 % of control; (dose: 0.75 mg/kg/injection, schedule: Q03DX003 (ip), vehicle: carboxymethylcellulose (CMC)) 47 % of control, 95 % of control, 100 % of control; (dose: 1.5 mg/kg/injection, schedule: Q03DX003 (ip), vehicle: carboxymethylcellulose (CMC)) 36 % of control, 62 % of control, 67 % of control; (dose: 3.0 mg/kg/injection, schedule: Q03DX003 (ip), vehicle: carboxymethylcellulose (CMC)) 62 % of control and 88 % of control. The T/C reads like this: (dose: 30.0 micrograms/kg/injection, schedule: Q01DX007 (ip), vehicle: saline) 72 % of control and 112 % of control; (dose: 60.0 micrograms/kg/injection, schedule: Q01DX007 (ip), vehicle: saline) 71 % of control and 100 % of control; (dose: 480.0 micrograms/kg/injection, schedule: Q01DX007 (ip), vehicle: saline) 20 % of control, 47 % of control, 84 % of control; (dose: 1000.0 micrograms/kg/injection, schedule: Q01DX007 (ip), vehicle: carboxymethylcellulose (CMC)) 38 % of control and 68 % of control.
`CC1=C(CO)C(=O)O[C@@H]([C@@H](C)[C@H]2CC[C@H]3[C@@H]4C[C@H]5O[C@]56[C@@H](O)C=CC(=O)[C@]6(C)[C@H]4CC[C@]23C)C1`: the T/C reads like this: (dose: 20.0 mg/kg/injection, schedule: Q01DX007 (ip), vehicle: carboxymethylcellulose (CMC)) 38 % of control and 71 % of control; (dose: 20.0 mg/kg/injection, schedule: Q01DX007 (ip), vehicle: saline) 46 % of control, 47 % of control, 104 % of control; (dose: 30.0 mg/kg/injection, schedule: Q01DX007 (ip), vehicle: saline) 65 % of control and 93 % of control.
`CC=C(/C(=C/C)c1ccc(O)cc1)c1ccc(O)cc1`: the T/C (dose: 42.0 mg/kg/injection, schedule: Q#A X014 (ip), vehicle: carboxymethylcellulose (CMC)) is 15 % of control and 68 % of control; the T/C (dose: 62.5 mg/kg/injection, schedule: Q#A X014 (ip), vehicle: carboxymethylcellulose (CMC)) is 22 % of control and 65 % of control.
With `CCCCCCCCCCCCCC1=C(O)C(=O)C(CC2=C(O)C(=O)C(CCCCCCCCCCCCC)=C(O)C2=O)=C(O)C1=O`, the T/C (dose: 25.0 mg/kg/injection, schedule: Q01DX007 (ip), vehicle: carboxymethylcellulose (CMC)) was 36 % of control and 94 % of control.
As to `Cn1cc(F)c(=O)[nH]c1=O`, the T/C (dose: 40.0 mg/kg/injection, schedule: Q01DX007 (ip), vehicle: carboxymethylcellulose (CMC)) is 73 % of control and 123 % of control.
Take `CC(=O)Nc1cc2c(cc1[N+](=O)[O-])-c1ccccc1C2O` (stereo not drawn): the T/C (dose: 222.0 mg/kg/injection, schedule: Q01DX007 (ip), vehicle: other) is 50 % of control and 82 % of control.
`CCCCNc1ncnc2c1cnn2C`: the T/C (dose: 16.0 mg/kg/injection, schedule: Q01DX007 (ip), vehicle: carboxymethylcellulose (CMC)) was 82 % of control and 117 % of control.
